Results from the supplement of paper PMC11125491.
± gives the standard deviation of the averaged measurements. Growth of baker's yeast expressing single-residue variants of Pneumocystis jirovecii dihydrofolate reductase in 8.8 or 44 µM methotrexate (about 75% and 90% inhibition of the wild type). Selection coefficient per generation; 0 = like wild type, above 0 = less sensitive, below 0 = more sensitive or loss of function. No active / inactive call per row; the paper calls resistant above 0.220 (8.8 µM) or 0.243 (44 µM) together with a significance test. At 44 µM about 15% of codons end with one read or none, so the lowest values are floors (replicate rank correlation 0.74; 0.94 at 8.8 µM).

B1: UniProt A0EPZ9; numbered along this chain (parent)
chain: MDWQKSLTLIVALTLSRGIGLKNDLPWKLKSDMMFFSRVTSGLLVTRSTGQMNVVLMGRKTWESLPAHSRPLKNRINVVISRQEVLDLGGGAYHARSLDDALALLSQIYDSTSKIQLNRVFVIGGGELCKAAMEHSRLNRIIATVIHNEVDCDVFFPIDFRSSQSCLPWRKQDHSVLEAWVGSKVPQGKINENGFIYEFEMWIRDI

Variants of: B1
Experiment: selection coefficient against synonymous wild-type codons (log2 per generation); higher = faster growth than wild type
Conditions: with Saccharomyces cerevisiae carrying the variant on a plasmid
Procedure: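 Pooled growth of yeast carrying single-residue variants of P. jirovecii dihydrofolate reductase (own DFR1 gene intact), two passages at 30 °C, three cultures, sequenced before and after. Codons with under 15 starting reads are left out; codons of one change are averaged.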

Variant	selection coefficient against synonymous wild-type codons (log2) (methotrexate 8.8 µM)	selection coefficient against synonymous wild-type codons (log2) (methotrexate 44 µM)
L9F	0.206 ± 0.035	0.212 ± 0.012
W180S	0.14 ± 0.055	0.0733 ± 0.046
W180Q	0.128 ± 0.074	0.0634 ± 0.035
L13K	0.232 ± 0.016	0.221 ± 0.068
L13H	0.232 ± 0.022	0.203 ± 0.018
Q187V	-0.084 ± 0.043	-0.2 ± 0.14
Q187G	-0.0836 ± 0.045	-0.048 ± 0.28
G126D	0.327 ± 0.03	0.576 ± 0.046
G126N	0.438 ± 0.034	0.627 ± 0.077
A101N	-0.584 ± 0.054	-0.0824 ± 0.024
N193K	0.0064 ± 0.057	-0.0115 ± 0.031
N148Y	-0.13 ± 0.034	-0.228 ± 0.096
N148E	0.108 ± 0.057	0.106 ± 0.038
N148G	0.0231 ± 0.048	0.067 ± 0.092
D151E	-0.083 ± 0.085	-0.12 ± 0.08
D151R	-0.208 ± 0.065	-0.128 ± 0.23
I10G	0.175 ± 0.025	0.34 ± 0.043
I10L	0.0119 ± 0.048	0.148 ± 0.079
I10F	0.553 ± 0.041	0.71 ± 0.022
Y197K	0.704 ± 0.067	0.927 ± 0.043
D2L	-0.133 ± 0.18	-0.195 ± 0.17
D2G	0.00429 ± 0.067	0.00769 ± 0.11
D2H	-0.0405 ± 0.11	-0.128 ± 0.088

Variant	selection coefficient against synonymous wild-type codons (log2) (methotrexate 8.8 µM)	selection coefficient against synonymous wild-type codons (log2) (methotrexate 44 µM)
D99C	-0.347 ± 0.054	-0.306 ± 0.12
F160V	0.181 ± 0.055	0.215 ± 0.14
G188F	-0.137 ± 0.047	-0.12 ± 0.031
D110K	-0.0315 ± 0.14	-0.261 ± 0.076
G89M	-0.436 ± 0.11	-0.303 ± 0.054
G89S	-0.139 ± 0.032	-0.18 ± 0.035
G89K	-0.0384 ± 0.044	-0.0382 ± 0.084
V78K	-0.679 ± 0.16	-0.289 ± 0.038
V78P	-0.675 ± 0.054	-0.172 ± 0.049
K171H	-0.0901 ± 0.054	-0.0714 ± 0.11
V181N	0.0483 ± 0.1	-0.132 ± 0.0062
V181H	0.103 ± 0.014	0.0353 ± 0.056
C129V	0.585 ± 0.03	0.885 ± 0.062
C129P	0.118 ± 0.022	0.27 ± 0.065
C129S	-0.043 ± 0.028	0.0283 ± 0.059
D159Y	-0.168 ± 0.062	-0.0948 ± 0.056
L29T	0.654 ± 0.044	0.791 ± 0.071
L29S	0.19 ± 0.038	0.171 ± 0.079
G194A	-0.22 ± 0.11	-0.248 ± 0.083
G194D	-0.0589 ± 0.036	-0.0608 ± 0.17
E84A	-0.124 ± 0.045	-0.083 ± 0.099
F156W	0.582 ± 0.038	0.708 ± 0.026
F156D	0.126 ± 0.084	0.319 ± 0.031

Variant	selection coefficient against synonymous wild-type codons (log2) (methotrexate 8.8 µM)	selection coefficient against synonymous wild-type codons (log2) (methotrexate 44 µM)
F199Y	0.608 ± 0.048	0.924 ± 0.13
F199I	0.197 ± 0.035	0.354 ± 0.016
V150Q	0.364 ± 0.01	0.293 ± 0.14
V150S	0.122 ± 0.045	0.0135 ± 0.13
V11K	0.216 ± 0.058	0.225 ± 0.07
R47T	-0.0194 ± 0.07	-0.0695 ± 0.13
R47I	-0.309 ± 0.095	-0.365 ± 0.092
I158K	0.0907 ± 0.034	0.046 ± 0.041
N77G	-0.494 ± 0.12	-0.251 ± 0.085
Q83I	-0.5 ± 0.066	-0.0684 ± 0.075
W3L	-0.0307 ± 0.065	0.0209 ± 0.1
W3P	0.21 ± 0.079	0.22 ± 0.13
S97C	-0.326 ± 0.063	-0.224 ± 0.14
S97Q	-0.706 ± 0.034	-0.203 ± 0.043
S97Y	-0.687 ± 0.12	-0.341 ± 0.037
S97I	-0.749 ± 0.046	-0.245 ± 0.061
S48K	-0.0096 ± 0.033	-0.0219 ± 0.073
S48C	-0.17 ± 0.053	-0.123 ± 0.11
S48M	-0.105 ± 0.042	-0.0109 ± 0.076
I142S	-0.515 ± 0.2	-0.0675 ± 0.24
C152E	0.407 ± 0.05	0.434 ± 0.027
C152D	0.0824 ± 0.054	0.205 ± 0.02
C152A	0.00794 ± 0.046	-0.0741 ± 0.1

Variant	selection coefficient against synonymous wild-type codons (log2) (methotrexate 8.8 µM)	selection coefficient against synonymous wild-type codons (log2) (methotrexate 44 µM)
C152L	0.357 ± 0.037	0.391 ± 0.038
C152P	0.242 ± 0.05	0.309 ± 0.019
P168N	-0.0753 ± 0.037	-0.103 ± 0.082
T46S	0.0148 ± 0.045	0.00518 ± 0.15
W27S	-0.053 ± 0.07	-0.0394 ± 0.14
W27Y	0.112 ± 0.039	0.168 ± 0.028
W27V	-0.126 ± 0.1	-0.0201 ± 0.082
E134N	-0.0481 ± 0.028	0.0316 ± 0.094
S106M	-0.165 ± 0.09	-0.138 ± 0.18
S106K	0.0761 ± 0.011	0.064 ± 0.015
K189D	0.00138 ± 0.044	-0.13 ± 0.08
M201N	-0.0399 ± 0.04	-0.103 ± 0.098
M201V	-0.165 ± 0.073	-0.197 ± 0.07
W62H	-0.497 ± 0.075	-0.317 ± 0.073
A12S	0.448 ± 0.049	0.515 ± 0.05
A12N	0.623 ± 0.06	0.76 ± 0.07
A12T	0.312 ± 0.021	0.329 ± 0.079
I196W	0.188 ± 0.13	0.873 ± 0.069
P186W	-0.539 ± 0.12	-0.365 ± 0.1
P186K	-0.0229 ± 0.015	-0.0277 ± 0.026
A103S	-0.0219 ± 0.091	-0.0431 ± 0.14
L72E	-0.492 ± 0.04	-0.354 ± 0.048
L72K	-0.43 ± 0.13	-0.207 ± 0.11

Variant	selection coefficient against synonymous wild-type codons (log2) (methotrexate 8.8 µM)	selection coefficient against synonymous wild-type codons (log2) (methotrexate 44 µM)
L86C	-0.172 ± 0.016	-0.145 ± 0.15
L86D	0.0773 ± 0.069	0.0453 ± 0.16
L86V	-0.138 ± 0.045	-0.183 ± 0.11
K184T	-0.0697 ± 0.074	-0.0911 ± 0.061
E149V	-0.228 ± 0.056	-0.293 ± 0.13
E149A	-0.122 ± 0.059	-0.231 ± 0.061
T144M	-0.412 ± 0.037	0.0129 ± 0.072
L167C	-0.112 ± 0.12	-0.113 ± 0.19
T8G	-0.305 ± 0.079	-0.182 ± 0.14
P66N	-0.172 ± 0.032	-0.135 ± 0.087
D173H	-0.171 ± 0.035	-0.151 ± 0.088
L65C	-0.261 ± 0.048	-0.225 ± 0.15
L65Y	0.0817 ± 0.026	0.188 ± 0.061
K22A	0.121 ± 0.036	0.141 ± 0.15
K22D	0.217 ± 0.052	0.2 ± 0.1
K22E	0.272 ± 0.022	0.244 ± 0.019
S41L	-0.183 ± 0.048	-0.113 ± 0.25
S41R	-0.0662 ± 0.066	-0.105 ± 0.13
K28G	-0.0619 ± 0.051	-0.113 ± 0.14
I146E	0.0139 ± 0.084	0.285 ± 0.097
H68F	-0.134 ± 0.045	-0.0796 ± 0.13
H68G	-0.0543 ± 0.038	-0.0611 ± 0.084
H68Q	-0.0885 ± 0.038	-0.1 ± 0.18
